Laboratory results as given in paper PMC6919601, “Identification of Plasmodium dipeptidyl aminopeptidase allosteric inhibitors by high throughput screening” (PLoS ONE, 2019).
The whole screen tested about 110,000 compounds, of which about 230 (0.21%) showed an effect of 50% or more. The list shows a part of the results.
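Also: 30 min substrate incubation versus DMSO and 10 µM JCP410 controls.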

What follows are molecules tested against DPAP1 (Plasmodium falciparum, UniProt Q8IIJ9) (assay: primary screen, percent inhibition; read by cleavage of a fluorogenic dipeptide substrate; higher = more effect of the substance).
Chain of DPAP1 (Q8IIJ9 whole entry, looked up): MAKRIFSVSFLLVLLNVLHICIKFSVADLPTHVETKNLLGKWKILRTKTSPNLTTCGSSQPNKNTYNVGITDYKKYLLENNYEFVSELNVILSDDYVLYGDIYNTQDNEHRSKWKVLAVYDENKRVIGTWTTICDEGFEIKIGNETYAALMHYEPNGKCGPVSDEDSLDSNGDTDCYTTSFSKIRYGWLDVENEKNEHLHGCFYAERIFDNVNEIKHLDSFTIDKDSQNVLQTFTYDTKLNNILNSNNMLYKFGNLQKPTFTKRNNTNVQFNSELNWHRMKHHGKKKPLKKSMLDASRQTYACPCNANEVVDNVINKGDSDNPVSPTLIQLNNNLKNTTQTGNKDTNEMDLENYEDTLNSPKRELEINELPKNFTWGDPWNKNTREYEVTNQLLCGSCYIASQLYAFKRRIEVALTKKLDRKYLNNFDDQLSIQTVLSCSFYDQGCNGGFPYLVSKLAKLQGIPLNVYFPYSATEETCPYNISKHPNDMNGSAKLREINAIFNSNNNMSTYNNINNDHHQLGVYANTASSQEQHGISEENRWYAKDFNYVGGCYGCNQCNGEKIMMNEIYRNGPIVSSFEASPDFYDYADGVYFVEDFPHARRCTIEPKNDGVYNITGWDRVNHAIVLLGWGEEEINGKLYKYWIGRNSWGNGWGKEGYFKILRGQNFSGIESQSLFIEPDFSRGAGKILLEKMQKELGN
Design: species or system P. falciparum D10 trophozoite lysates; single well
For CC(=O)c1cccc(NC(=O)CCC(=O)Nc2cccc(C(C)=O)c2)c1, the “% Inhibition @ 10 uM” value was 0.313%. OCC1CCCCN1Cc1c(F)cccc1F (centres unmarked) was tested, and the “% Inhibition @ 10 uM” value was 1.9%. In the case of O=C1c2ccccc2C(=O)N1c1cc(Cl)ccc1O, the “% Inhibition @ 10 uM” value is reported as -1.95%. CN(C)CCCNC(=O)COc1ccc(-c2nn(C)c(=O)c3ccccc23)cc1 was tested, and the “% Inhibition @ 10 uM” value was -1.65%. With COc1ccc(OC)c(NC(=O)CN(c2cccc(F)c2)S(C)(=O)=O)c1 the “% Inhibition @ 10 uM” value was -6.83%. N#CC1=C(N)OC2=C(C(=O)CCC2)C1c1cccs1 (centres unmarked) was tested, and the “% Inhibition @ 10 uM” value was -6.82%. With O=C(O)CNC(=O)/C=C/c1cccs1 the “% Inhibition @ 10 uM” value was 0.718%. With CCOC(c1ccc(Cl)cc1)P(=O)(OCC)OCC (centres unmarked) the “% Inhibition @ 10 uM” value was 1.54%. In the case of Cc1cc(C)nc(/N=C(\N)Nc2cccc(N)c2)n1, the “% Inhibition @ 10 uM” value is reported as -2.58%. CC12CN3CC(C)(CN(C1)C3c1cccs1)C2O (centres unmarked) was tested, and the “% Inhibition @ 10 uM” value was 4.03%. COc1ccc(Cl)cc1NC(=O)c1cccs1 was tested, and the “% Inhibition @ 10 uM” value was -2.6%. For Oc1ccc(Cc2cnc(O)nc2O)cc1, the “% Inhibition @ 10 uM” value was -1.22%. N#CCCS(=O)(=O)c1cccc2c(S(=O)(=O)CCC#N)cccc12 was tested, and the “% Inhibition @ 10 uM” value was 3.01%. In the case of CCCCN(CCCC)CC(=O)Nc1c2c(nc3ccccc13)N(C)CC2, the “% Inhibition @ 10 uM” value is reported as 1.9%. In the case of CN1CCN(c2ccc(Nc3c4ccccc4nc4ccccc34)cc2)CC1, the “% Inhibition @ 10 uM” value is reported as 25.4%. For COc1ccccc1C(=O)Nc1nc2n(n1)C(c1ccccc1)C=C(c1ccc(Cl)cc1)N2 (centres unmarked), the “% Inhibition @ 10 uM” value was -0.386%. Brc1ccc(-c2cn3c4ccccc4nc3n2CCN2CCOCC2)cc1 was tested, and the “% Inhibition @ 10 uM” value was -3.27%. In the case of CCc1c(C)nc2nnc(-c3ccccc3OC)n2c1O, the “% Inhibition @ 10 uM” value is reported as -0.597%. With Cc1cccc(-n2c(C)cn3c4c(=O)n(C)c(=O)n(C)c4nc23)c1 the “% Inhibition @ 10 uM” value was -2.67%. With Cc1ccc(N2CCN(CC(=O)Nc3ccc(Br)cc3)CC2)c(C)c1 the “% Inhibition @ 10 uM” value was 0.755%. With CCOc1ccc(N(C(C)C(=O)Nc2ccccc2Cl)S(C)(=O)=O)cc1 (centres unmarked) the “% Inhibition @ 10 uM” value was -2.28%. For COc1ccc2[nH]cc(CCNC(=O)c3ccc([N+](=O)[O-])cc3)c2c1, the “% Inhibition @ 10 uM” value was 3.16%. With O=C1OC(OC(=O)c2ccco2)C(Cl)=C1Cl (centres unmarked) the “% Inhibition @ 10 uM” value was 1.84%. In the case of O=C(O)C1CCCCC1C(=O)Nc1ccc(N2CCN(CCO)CC2)cc1 (centres unmarked), the “% Inhibition @ 10 uM” value is reported as -2.99%. For COC(=O)C1=C(C)N=C(C)/C(=C(/O)OC)C1c1ccc(Cl)c(Cl)c1 (centres unmarked), the “% Inhibition @ 10 uM” value was -1.03%. In the case of Cc1cc(C)nc(NS(=O)(=O)c2ccc(NC(=O)C(C)Oc3ccccc3F)cc2)n1 (centres unmarked), the “% Inhibition @ 10 uM” value is reported as -1.52%. With CCN(Cc1ccccc1)C(=O)c1c(C)nn(-c2ccccc2)c1-n1cccc1 the “% Inhibition @ 10 uM” value was -3.35%. With CCN(CC)CCNC(=O)Cn1c(C(F)(F)F)nc2ccccc21 the “% Inhibition @ 10 uM” value was -1.73%. With O=C(O)c1cccc(NS(=O)(=O)c2cccc(S(=O)(=O)c3ccc(Cl)c(Cl)c3)c2)c1 the “% Inhibition @ 10 uM” value was 11.7%. In the case of CC(C)Oc1ccc(CNC2CCOC(C)(C)C2)cc1 (centres unmarked), the “% Inhibition @ 10 uM” value is reported as -7.94%. For CC(C)C(NC(=O)OCc1ccccc1)C(=O)NC1CCCCC1 (centres unmarked), the “% Inhibition @ 10 uM” value was 0.843%. For Cc1c(C(=O)NCCC2=CCCCC2)sc2ncn(CC(=O)N3CC(C)CC(C)C3)c(=O)c12 (centres unmarked), the “% Inhibition @ 10 uM” value was -5.76%. COC(=O)c1ccc(NC(=O)c2ccco2)cc1 was tested, and the “% Inhibition @ 10 uM” value was -0.0404%. CC(Oc1cccc(Cl)c1)C(=O)N1CCN(C/C=C/c2ccccc2)CC1 (centres unmarked) was tested, and the “% Inhibition @ 10 uM” value was 1.59%. In the case of COc1ccc(/C=N/n2cnnc2)cc1O, the “% Inhibition @ 10 uM” value is reported as 4.41%. In the case of O=c1oc2ccc3ccccc3c2cc1-c1nc2ccccc2o1, the “% Inhibition @ 10 uM” value is reported as 4.12%. For COc1ccc(CCNC(=O)CCCn2sc3ccccc3c2=O)cc1OC, the “% Inhibition @ 10 uM” value was -4.68%. In the case of COc1ccccc1C1Oc2ccc(Cl)cc2C2=C1C(c1cccs1)n1ncnc1N2 (centres unmarked), the “% Inhibition @ 10 uM” value is reported as -1.62%. In the case of COc1ccc(C(=O)NCc2cccnc2)cc1OC, the “% Inhibition @ 10 uM” value is reported as -1.57%. In the case of CCN(CC)C(=O)C1CCCN(Cc2ccc(F)c(Br)c2)C1 (centres unmarked), the “% Inhibition @ 10 uM” value is reported as -5.57%. In the case of Cc1ccc(C2=[N+]([O-])C(C)(C)C(c3ccc(C)cc3)=[N+]([O-])C2(C)C)cc1, the “% Inhibition @ 10 uM” value is reported as 1.63%. In the case of CCc1ccc(C2CC(c3ccc(Cl)cc3)Nc3nnnn32)cc1 (centres unmarked), the “% Inhibition @ 10 uM” value is reported as 4.86%. CSc1ncc(Nc2nc(C)cs2)cn1 was tested, and the “% Inhibition @ 10 uM” value was 1%. For CSc1nn(-c2nc3c(C)cccc3s2)c(N)c1C#N, the “% Inhibition @ 10 uM” value was -0.99%. With CN(C)CCOC(c1ccc(F)cc1)c1ccc(F)cc1 the “% Inhibition @ 10 uM” value was 3.05%. CCOC(=O)c1c(C)c(-c2ccccc2)n(CC(=O)Nc2nccs2)c1C was tested, and the “% Inhibition @ 10 uM” value was 3.32%. CCOc1cc(C2C(C#N)=C(N)Oc3[nH]nc(-c4ccc(C)cc4)c32)ccc1O (centres unmarked) was tested, and the “% Inhibition @ 10 uM” value was -2.78%. For c1ccc(N2CCN(c3nn4nnnc4c4ccccc34)CC2)nc1, the “% Inhibition @ 10 uM” value was -0.704%. c1ccc(-c2nc3cccnc3nc2N2CCCCC2)cc1 was tested, and the “% Inhibition @ 10 uM” value was 5.32%. In the case of CSc1ccc(C2C(C#N)=C(N)Oc3c2c(O)nc2ccccc32)cc1 (centres unmarked), the “% Inhibition @ 10 uM” value is reported as 1.26%. Cc1c(NC(=O)/C(O)=C/C(=O)c2ccccc2)c(=O)n(-c2ccccc2)n1C was tested, and the “% Inhibition @ 10 uM” value was -6.46%. With C=CCn1c(CNC(=O)c2cccc(C)c2)nc2ccccc21 the “% Inhibition @ 10 uM” value was 0.505%. For O=S(=O)(c1cccnc1Nc1cccc(C(F)(F)F)c1)N1CCOCC1, the “% Inhibition @ 10 uM” value was 1.94%. Cc1ccc(-c2cn3nc(C4CC4)sc3n2)cc1 was tested, and the “% Inhibition @ 10 uM” value was 7.04%. C#CCSc1nc(N)c2c3c(sc2n1)CCCC3 was tested, and the “% Inhibition @ 10 uM” value was 3.47%. In the case of COc1ccc(Cc2nc(-c3ccc(-n4cccc4)cc3)no2)cc1OC, the “% Inhibition @ 10 uM” value is reported as -5.11%. For COc1ccc(C)c2sc(N(CCN(C)C)C(=O)Cc3ccccc3)nc12, the “% Inhibition @ 10 uM” value was 4.19%. In the case of O=c1oc2c3c(c(Cl)cc2c2c1CCC2)OCN(Cc1ccccc1)C3, the “% Inhibition @ 10 uM” value is reported as -0.808%. In the case of Cc1ccc2nc3c(cc(C#N)c(=O)n3-c3nccs3)c(=O)n2c1, the “% Inhibition @ 10 uM” value is reported as 2.73%. For CCc1ccc(Oc2nc3ccccn3c(=O)c2/C=C(\C#N)S(=O)(=O)c2ccccc2)cc1, the “% Inhibition @ 10 uM” value was 3.12%. Cc1ccc(C)c(N2C(=O)C3CCC(C)CC3C2=O)c1 (centres unmarked) was tested, and the “% Inhibition @ 10 uM” value was -0.999%. Cc1nn(Cc2ccc(F)cc2)c(C)c1NC(=O)COCc1cc(-c2ccc3c(c2)OCO3)on1 was tested, and the “% Inhibition @ 10 uM” value was 0.56%. In the case of O=C1NCc2ccccc2-c2ccccc21, the “% Inhibition @ 10 uM” value is reported as -1.54%. For Cc1nc(SCC(=O)c2ccc(O)c(O)c2)c(C#N)c(-c2ccc(Br)cc2)c1C#N, the “% Inhibition @ 10 uM” value was 0.587%. CCOC(=O)c1s/c(=N\C(=O)c2cccc3ccccc23)n(C)c1C was tested, and the “% Inhibition @ 10 uM” value was 1.39%.
